According to article PMC4336329 (PLoS ONE, 2015):
Out of some 310,000 compounds screened, about 14,000 (4.5%) showed an effect of 50% or more. Effects have a minus sign here. The list shows a part of the results.

Target: human ether-à-go-go-related gene (hERG) potassium channel (human, UniProt Q12809)
Assay: primary screen, population patch clamp on CHO cells stably expressing hERG
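Note: peak tail current of the secondary pulse compared with the same well before compound.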

Sequence of human ether-à-go-go-related gene (hERG) potassium channel (Q12809 whole entry, looked up): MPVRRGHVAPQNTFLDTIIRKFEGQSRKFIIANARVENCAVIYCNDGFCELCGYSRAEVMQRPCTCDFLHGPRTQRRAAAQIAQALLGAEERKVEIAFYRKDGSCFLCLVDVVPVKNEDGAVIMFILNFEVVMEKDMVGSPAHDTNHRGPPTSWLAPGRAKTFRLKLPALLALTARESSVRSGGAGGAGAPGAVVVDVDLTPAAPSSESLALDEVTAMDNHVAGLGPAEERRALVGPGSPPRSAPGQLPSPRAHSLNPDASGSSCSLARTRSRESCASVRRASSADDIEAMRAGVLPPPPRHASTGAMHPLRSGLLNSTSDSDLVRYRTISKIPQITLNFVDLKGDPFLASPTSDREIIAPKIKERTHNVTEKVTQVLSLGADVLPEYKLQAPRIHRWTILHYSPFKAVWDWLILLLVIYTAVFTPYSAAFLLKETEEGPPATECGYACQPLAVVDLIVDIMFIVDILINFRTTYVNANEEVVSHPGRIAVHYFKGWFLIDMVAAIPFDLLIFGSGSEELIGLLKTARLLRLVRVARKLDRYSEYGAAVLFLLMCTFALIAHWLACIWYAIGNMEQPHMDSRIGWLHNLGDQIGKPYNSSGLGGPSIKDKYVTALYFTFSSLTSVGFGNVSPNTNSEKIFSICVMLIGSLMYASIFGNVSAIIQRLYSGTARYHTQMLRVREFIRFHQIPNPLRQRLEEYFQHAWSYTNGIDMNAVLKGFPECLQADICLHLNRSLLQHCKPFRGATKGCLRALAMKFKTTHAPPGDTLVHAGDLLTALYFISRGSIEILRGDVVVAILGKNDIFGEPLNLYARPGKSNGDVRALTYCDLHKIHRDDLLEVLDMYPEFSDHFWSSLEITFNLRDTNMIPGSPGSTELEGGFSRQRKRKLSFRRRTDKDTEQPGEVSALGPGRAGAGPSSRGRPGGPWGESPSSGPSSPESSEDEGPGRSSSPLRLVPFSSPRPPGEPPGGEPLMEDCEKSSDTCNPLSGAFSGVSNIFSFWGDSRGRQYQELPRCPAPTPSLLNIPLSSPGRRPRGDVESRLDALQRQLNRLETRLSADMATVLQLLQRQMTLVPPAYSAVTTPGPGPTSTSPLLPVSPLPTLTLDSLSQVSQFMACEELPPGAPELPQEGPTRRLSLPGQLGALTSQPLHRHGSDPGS

Compared with `Cc1cc(C)c2c(CN3CCN(Cc4ccccc4)CC3)cc(=O)oc2c1.Cl`, `N#CC[C@H](Cc1ccccc1)N1CCN(Cc2ccccc2)CCC1=O` is higher in “hERG current change (%, negative = inhibition) at 10uM” value: -66.9% for the first, -24% for the second.

Compared with `CC(CC(=O)N1CCN(c2ccccc2F)CC1)c1ccccc1` (stereo not drawn), `O=C(CCn1nc(-c2ccc(Cl)cc2)ccc1=O)N1CCN(c2ccccc2)CC1` is lower in “hERG current change (%, negative = inhibition) at 10uM” value: -4.67% for the first, -45.9% for the second.

Compared with `Cn1ccnc1SCCNC(=O)C1CCC(=O)N(Cc2ccc(Cl)cc2)C1` (stereo not drawn), `CCc1ccc(N2CC(C(=O)NCC(C)(C)N3CCOCC3)CC2=O)cc1` (stereo not drawn) is higher in “hERG current change (%, negative = inhibition) at 10uM” value: -3.3% for the first, 5.36% for the second.

First: O=C(Cn1c(=O)oc2cc(S(=O)(=O)N3CCCC3)ccc21)N1CCN(c2ccccc2)CC1
Second: CN(Cc1nc2ccccc2c(=O)[nH]1)C(=O)c1ccc(S(=O)(=O)N2CCCC2)cc1
The “hERG current change (%, negative = inhibition) at 10uM” value of the first is higher: -0.111% for the first, -38.8% for the second.

First: Cc1cccc(N(C)C(=O)CCS(=O)(=O)c2cccc3nonc23)c1
Second: CC(=O)Nc1ccc(S(=O)(=O)n2nc(-c3ccc(C)cc3)nc2N)cc1
The “hERG current change (%, negative = inhibition) at 10uM” value of the first is lower: -6.05% for the first, 14.3% for the second.

First: CC(C)Cn1c(=O)c2ccccc2n2c(CCC(=O)NC3CCN(Cc4ccccc4)CC3)nnc12
Second: COc1ccc(CCNC(=O)CS(=O)(=O)c2cn(CC(=O)N3CCCC3)c3ccccc23)cc1OC
The “hERG current change (%, negative = inhibition) at 10uM” value of the first is lower: -39.4% for the first, 8.22% for the second.

First: Cc1cc(NC(=O)c2cncc(Br)c2)no1
Second: CCCc1cc(C(=O)Nc2cc(C)ccc2O)no1
The “hERG current change (%, negative = inhibition) at 10uM” value of the first is higher: 10.3% for the first, -5% for the second.

Going from `CCC(C)N1C(=O)CN(C2CCCCCC2)C(=O)C1c1ccccc1F` (stereo not drawn) to `O=C(CC1Oc2ccc(Cl)cc2NC1=O)NC1CCCCCC1` (stereo not drawn), the “hERG current change (%, negative = inhibition) at 10uM” value rises from 2.67% to 6.76%.

Going from `CNC(=O)NC1CCCc2ccccc21` (stereo not drawn) to `O=C(Nc1nc2c(s1)CCCC2)Oc1ccccc1`, the “hERG current change (%, negative = inhibition) at 10uM” value rises from 14% to 14.3%.

Compared with `COc1ccc(NC(=O)CN(C)C(=O)C(CCSC)NC(=O)c2ccccc2)cc1` (stereo not drawn), `O=C(Cc1ccccc1)N/N=C/c1ccc(OC(=O)/C=C\c2ccco2)cc1` is higher in “hERG current change (%, negative = inhibition) at 10uM” value: 5.37% for the first, 8.06% for the second.

First: Cc1cccc(N2C(=O)CC(N3CCOCC3)C2=O)c1 (stereo not drawn)
Second: Cc1ccc(C)c(S(=O)(=O)N2CCC3(CC2)OCCO3)c1
The “hERG current change (%, negative = inhibition) at 10uM” value of the first is higher: 11.8% for the first, -9.48% for the second.

First: COc1ccc(NCc2ccsc2)cc1
Second: COc1ccc2c(CC(=O)Nc3ccccc3OC)coc2c1
The “hERG current change (%, negative = inhibition) at 10uM” value of the first is higher: 2.52% for the first, -4.03% for the second.

First: CC(=O)OCC(=O)[C@@]12OC(C)(C)O[C@@H]1C[C@H]1[C@@H]3C[C@H](F)C4=CC(=O)C=C[C@]4(C)[C@@]3(F)[C@@H](O)C[C@@]12C
Second: O=C(Nc1cnn(C23CC4CC(CC(C4)C2)C3)c1)c1cnn2c(C(F)(F)F)cc(-c3ccco3)nc12
The “hERG current change (%, negative = inhibition) at 10uM” value of the first is higher: 5.05% for the first, -3.81% for the second.

Going from `Cc1oc(C)c(C(=O)Nc2ccc(CC(=O)O)cc2)c1C(=O)Nc1ccc(CC(=O)O)cc1` to `CC(=O)c1cc(NC(=O)c2ccc(C)cc2)c(=O)oc1C`, the “hERG current change (%, negative = inhibition) at 10uM” value rises from 12.9% to 14.6%.

First: CC(C)(C)c1cc(CNC2CS(=O)(=O)C[C@@H]2O)cc(C(C)(C)C)c1O (stereo partly drawn)
Second: CC(C)(C)c1ccccc1NC(=O)CN1C(=O)NC2(CCCC2)C1=O
The “hERG current change (%, negative = inhibition) at 10uM” value of the first is higher: 5.1% for the first, 1.01% for the second.

Going from `COc1cc(Cl)ccc1S(=O)(=O)n1nc(C)cc1C` to `COc1ccc(NS(=O)(=O)c2cn(C)cn2)cc1OC`, the “hERG current change (%, negative = inhibition) at 10uM” value rises from 2.21% to 22%.

First: Cc1cc(C)cc(NC(=O)c2ccc(CNc3c(N4CCOCC4)c(=O)c3=O)cc2)c1
Second: O=C(OCC(=O)c1c[nH]c2ccccc12)c1cc(S(=O)(=O)N2CCOCC2)ccc1F
The “hERG current change (%, negative = inhibition) at 10uM” value of the first is higher: 4.46% for the first, -2.91% for the second.

Compared with `COc1ccc(NC(=O)Cn2nnc(-c3ccccc3N)n2)cc1OC`, `COc1ccc(C2CC(c3cccs3)=NN2C(=O)CSc2nncs2)cc1OC` (stereo not drawn) is lower in “hERG current change (%, negative = inhibition) at 10uM” value: -1.88% for the first, -43.2% for the second.

First: CCN1CCN(c2nc(Nc3ccccc3)nc(N)c2[N+](=O)[O-])CC1
Second: O=C(CSc1ncnc2nc[nH]c12)N1CCN(c2ccccc2)CC1
The “hERG current change (%, negative = inhibition) at 10uM” value of the first is lower: -63% for the first, -8.74% for the second.

Going from `O=C1CCN(Cc2ccccc2)S(=O)(=O)c2c(F)cc(F)cc21` to `COCCN(C(=O)COC(=O)c1sccc1C)c1c(N)n(Cc2ccccc2)c(=O)[nH]c1=O`, the “hERG current change (%, negative = inhibition) at 10uM” value rises from -14.1% to 15.4%.

First: COc1ccccc1/C=C\C=N\n1c(C2CCCCC2)n[nH]c1=S
Second: Cc1cc(S(=O)(=O)NC2CCCCC2)ccc1OCC(=O)NCc1ccccn1
The “hERG current change (%, negative = inhibition) at 10uM” value of the first is higher: -3.24% for the first, -13.1% for the second.

Compared with `COC(=O)C1=C[C@@H](C(=O)OC)[C@@H]2C3=C(C(=O)[C@@]2(C)NC(=O)c2ccccc2)[C@H](C)C(C(=O)OC)=C(C(=O)OC)[C@@H]3C1`, `COC(=O)c1ccc(C(=O)OC)c(NC(=S)N2CC(C)CC(C)C2)c1` (stereo not drawn) is higher in “hERG current change (%, negative = inhibition) at 10uM” value: -3.1% for the first, 3.44% for the second.

First: N#CC1=C(Nc2ccccc2)SC=C(c2ccc(F)cc2)N=C1N1CCOCC1
Second: N#Cc1nc(Cc2ccccc2)oc1NCc1ccccc1
The “hERG current change (%, negative = inhibition) at 10uM” value of the first is higher: -10.8% for the first, -40.5% for the second.

First: COc1ccc(/C(O)=C2/C(=O)C(=O)N(c3ncccn3)C2c2ccc(OC)cc2)cc1 (stereo not drawn)
Second: COc1ccccc1C1CC(c2ccc(NS(C)(=O)=O)cc2)=NN1C(=O)c1ccccc1 (stereo not drawn)
The “hERG current change (%, negative = inhibition) at 10uM” value of the first is higher: 16.2% for the first, -50.9% for the second.

First: COC(=O)c1ccc(OC(=O)N2CCOCC2)cc1
Second: Cc1ccc(C(=O)NC(=S)N2CCN(C(=O)OC(C)(C)C)CC2)cc1Br
The “hERG current change (%, negative = inhibition) at 10uM” value of the first is lower: 13.8% for the first, 14.2% for the second.

Compared with `Cc1ccc(NC(=O)CCn2cccc2)cc1`, `CC1CN(CC(=O)Nc2ccc(S(N)(=O)=O)cc2)CC(C)O1` (stereo not drawn) is lower in “hERG current change (%, negative = inhibition) at 10uM” value: 2.67% for the first, -52% for the second.

Compared with `CCCOCCc1nnc(N)s1`, `CCc1ccc(/C=C(/C#N)C(N)=S)s1` is lower in “hERG current change (%, negative = inhibition) at 10uM” value: 21.7% for the first, 6.05% for the second.

Going from `C=C(C)CNC(=S)N/N=C(\C)c1ccc(-n2ccnc2)cc1` to `Cc1cc(C)c(Cn2ncn(-c3ccc(Br)cc3)c2=O)c(C)c1`, the “hERG current change (%, negative = inhibition) at 10uM” value rises from -37.7% to 19.4%.

First: Nc1cc(N)cc(C(=O)Nc2ccc3c(c2)C(=O)NC3=O)c1
Second: O=C1c2cccc(O)c2C(=O)c2c(O)cc(CO)cc21
The “hERG current change (%, negative = inhibition) at 10uM” value of the first is higher: 12.1% for the first, 11.2% for the second.

Going from `CN1C(C(=O)N2CCC3(CC2)OCCO3)=CC(c2ccc(F)cc2)=NS1(=O)=O` to `O=C(Cc1ccc(Br)cc1)N1CCCC1`, the “hERG current change (%, negative = inhibition) at 10uM” value rises from 5.13% to 19.3%.

Going from `Cc1oc2cc(O)cc(C)c2c(=O)c1-c1cnn(-c2ccccc2)c1` to `COC(=O)c1cc2sc(Cl)cc2n1Cc1nc(-c2ccccc2)oc1C`, the “hERG current change (%, negative = inhibition) at 10uM” value falls from 8.31% to 3.5%.

Compared with `Cl.N=c1c2c(n(Cc3cccc(Cl)c3)c3c1CCC3)CCCC2`, `Cc1nn(-c2cccc(Cl)c2)c2nc(C(F)(F)F)[nH]c(=O)c12` is higher in “hERG current change (%, negative = inhibition) at 10uM” value: -0.0862% for the first, 25.5% for the second.

Going from `CCOC(=O)N1CCN(C(=O)CSCC(=O)N=c2sc3ccccc3n2C)CC1` to `CC(=O)c1ccccc1NC(=O)COC(=O)Cc1cccc(C(F)(F)F)c1`, the “hERG current change (%, negative = inhibition) at 10uM” value rises from -17.6% to -10.3%.

First: O=C(CO/N=C/c1ccc(OC(F)F)cc1)NCc1ccc(F)cc1
Second: CCCCOc1ccc(/C=N/NC(=O)c2csc(C)c2C)cc1
The “hERG current change (%, negative = inhibition) at 10uM” value of the first is lower: -79.2% for the first, 16.8% for the second.

First: CCOC(=O)NN1C(=O)c2ccccc2NC1c1ccccn1 (stereo not drawn)
Second: CCOCCCNC(=O)Cn1nc(Cc2ccncc2)c2ccccc2c1=O
The “hERG current change (%, negative = inhibition) at 10uM” value of the first is higher: 8.02% for the first, 5.25% for the second.

Compared with `CC(C)CCNC(=O)NC(=O)COc1c(F)c(F)cc(F)c1F`, `CCc1cc(=O)oc2cc(OCC(=O)N3C[C@H]4C[C@@H](C3)c3cccc(=O)n3C4)c(Cl)cc12` is higher in “hERG current change (%, negative = inhibition) at 10uM” value: -7.4% for the first, -3.61% for the second.

Compared with `CCCNc1nc(=S)n(-c2ccccc2)c(C)c1C(C)=O`, `Cc1c(NC(=O)C2CCCN2S(=O)(=O)c2ccc(Cl)cc2)c(=O)n(-c2ccccc2)n1C` (stereo not drawn) is lower in “hERG current change (%, negative = inhibition) at 10uM” value: 20.5% for the first, -1.73% for the second.

Going from `COCCNC(=S)N(CCc1c(C)[nH]c2ccc(Cl)cc12)Cc1cccs1` to `Cc1ccc(C)c(NC(=S)N(C2CCCCC2)C(C)c2cccnc2)c1` (stereo not drawn), the “hERG current change (%, negative = inhibition) at 10uM” value falls from 57.7% to -13.9%.

First: O=C(O)CC(c1ccc(OC2CCCC2)cc1)N1C(=O)c2ccccc2C1=O (stereo not drawn)
Second: Cc1ccc(S(=O)(=O)N(Cc2ccccc2)C(C)C)cc1
The “hERG current change (%, negative = inhibition) at 10uM” value of the first is higher: 11.8% for the first, -4.5% for the second.

Compared with `Cc1nc(C)c(C(=O)C2=C(O)C(=O)N(CCN3CCOCC3)C2c2cccs2)s1` (stereo not drawn), `COc1ccc(NC(=O)c2cccc(Cn3cc(Br)c([N+](=O)[O-])n3)c2)c(C)c1` is lower in “hERG current change (%, negative = inhibition) at 10uM” value: 5.12% for the first, -72% for the second.

Going from `CC1=CCC2COC(c3ccc[n+](Cc4ccccc4)c3)C1C2.[Cl-]` (stereo not drawn) to `COCCn1nnnc1C(c1ccccc1OC)N1CCN(c2ccccc2)CC1.Cl` (stereo not drawn), the “hERG current change (%, negative = inhibition) at 10uM” value rises from -7.19% to -4.6%.

First: O=C(COC(=O)CNS(=O)(=O)c1cccc(Br)c1)Nc1ccccc1Sc1ccccc1
Second: CCCC(=O)N(CCN(C(=O)CCC)c1ccccc1)c1ccccc1
The “hERG current change (%, negative = inhibition) at 10uM” value of the first is higher: 12.3% for the first, -17.8% for the second.

First: NC(=O)CN1N=C(c2cc(Cl)sc2Cl)CSC1=O
Second: N#C/C(=C\c1c(F)cccc1Cl)C(=O)NC1CC1
The “hERG current change (%, negative = inhibition) at 10uM” value of the first is higher: -4.87% for the first, -16.5% for the second.

With `O=C(O)c1ccc(NC(=O)C2CC=CCC2C(=O)O)cc1` (stereo not drawn) the “hERG current change (%, negative = inhibition) at 10uM” value was -49.5%.
